Assay results from the RNAGym collection of RNA variant scans (doi:10.1101/gad.245936.114).
Variants at the floor of the assay are shown more often than the library holds them.

B1: tRNA (parent)
chain: CUCUCGGUAGCCAAGUUGGUUUAAGGCGCAAGACUUUAAUUUAUCACUACGAAAUCUUGAGAUCGGGCGUUCGACUCGCCCCCGGGAGAUUUUUUCCUCGAGCAA

Variants of: B1
Experiment: nonsense suppression (GFP-seq) (ratio to wild type); higher = more function; SUP4oc tRNA, yeast GFP reporter sort-seq
In short: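 Yeast were grown in raffinose/galactose medium with 80 mg/L adenine, each strain bearing a genome-integrated ochre-suppressor tRNA variant from a ~3% random-mutation library, a galactose-driven GFP ochre reporter, and RFP. After sorting into GFP/RFP bins, every bin was sequenced on an Illumina platform at phred ≥30. The GFPSEQ value, a measure of nonsense suppression, is the weighted bin median GFP/RFP relative to the unmutated parent tRNA, using each variant's estimated cell share per bin as the weight. Only variants with ≥100 reads and ≥30 cells were included.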
For U2A A33G, the nonsense suppression was ≤ 0.026. In the case of C1U U16A G73C, the nonsense suppression is reported as ≤ 0.026. For C1U G32A, the nonsense suppression was ≤ 0.026. With U2A G25A A33G G59A G88C the nonsense suppression was ≤ 0.026. For U2C A74G, the nonsense suppression was ≤ 0.026. With C1U C27A A31C G61A the nonsense suppression was ≤ 0.026. With U2A U22G U35C C56U A89U the nonsense suppression was ≤ 0.026. In the case of C1U C79A A89G, the nonsense suppression is reported as ≤ 0.026. In the case of C1U C5G G28A U35A C80U, the nonsense suppression is reported as ≤ 0.026. In the case of U2A A31C A62C G78U A87U, the nonsense suppression is reported as ≤ 0.026. In the case of U2A C34G C75A, the nonsense suppression is reported as ≤ 0.026. In the case of U2A G59U C80A G84A, the nonsense suppression is reported as ≤ 0.026. For U2A G10U G25A C83G, the nonsense suppression was ≤ 0.026. With U2A G15A G66C G85U the nonsense suppression was ≤ 0.026. For U2C G18U, the nonsense suppression was ≤ 0.026. With U2C A33U U55C C77G G78A the nonsense suppression was ≤ 0.026. With U2C G18C G25U A54C U57C G61U U70G the nonsense suppression was ≤ 0.026. Variant U2A U22G C29A C34A has a nonsense suppression of 0.221. With C1U C27G G67C G84C the nonsense suppression was ≤ 0.026. With U2A C68U U70C the nonsense suppression was ≤ 0.026. For U2A U16A G59U, the nonsense suppression was ≤ 0.026. For U2A U17A U63A U76C, the nonsense suppression was ≤ 0.026. With C1U G59C the nonsense suppression was ≤ 0.026. With C1U U21C G66U G69C the nonsense suppression was ≤ 0.026. For U2A C3G C27G C29G A33U, the nonsense suppression was ≤ 0.026. For U2A U4G A13U U22C A33G, the nonsense suppression was ≤ 0.026. For U2A G66C A89G, the nonsense suppression was ≤ 0.026. In the case of C1U U4G C5U A31G C81A, the nonsense suppression is reported as ≤ 0.026. With U2C U16G A24U U63C the nonsense suppression was ≤ 0.026. With U2A U22G the nonsense suppression was ≤ 0.026. In the case of U2C G88C, the nonsense suppression is reported as ≤ 0.026. With U2A G32C the nonsense suppression was ≤ 0.026. For C1U G32U C34G, the nonsense suppression was ≤ 0.026. For U2C U8C G15U, the nonsense suppression was ≤ 0.026. For C1U U8A A33C U55C, the nonsense suppression was ≤ 0.026. For U2C C75G C81G, the nonsense suppression was ≤ 0.026. In the case of U2A C27U G32A, the nonsense suppression is reported as ≤ 0.026. In the case of C1U G69U, the nonsense suppression is reported as ≤ 0.026. For U2A C12G A23C C75A, the nonsense suppression was ≤ 0.026. With U2C G59A C82A the nonsense suppression was ≤ 0.026. In the case of U2A C5A, the nonsense suppression is reported as ≤ 0.026. In the case of U2C C11G C12U, the nonsense suppression is reported as ≤ 0.026. In the case of U2C A60C C75U, the nonsense suppression is reported as ≤ 0.026. For U2A A14C U57A G59A, the nonsense suppression was ≤ 0.026. With U2C C11A C27A A33U the nonsense suppression was ≤ 0.026. U2C A13U showed a nonsense suppression of 0.0357. In the case of C1U C82U G86C, the nonsense suppression is reported as ≤ 0.026. With U2C G19C U35A the nonsense suppression was ≤ 0.026. For C1U U8A, the nonsense suppression was ≤ 0.026. With U2C C34U G69C A89G the nonsense suppression was ≤ 0.026. With C1U U2C A54C G61U U76A the nonsense suppression was ≤ 0.026. With U2A U4G G18A the nonsense suppression was ≤ 0.026. In the case of U2A A33G C80A C81G, the nonsense suppression is reported as ≤ 0.026. In the case of C1U U17A G32U, the nonsense suppression is reported as ≤ 0.026. In the case of U2A G7U G26U A31G G65C C72G, the nonsense suppression is reported as ≤ 0.026. In the case of U2A G7U G26U A31G G65C C72U, the nonsense suppression is reported as ≤ 0.026. With U2A G65U the nonsense suppression was ≤ 0.026. With C1U U4G G10A U21G A24G G59U U70C the nonsense suppression was ≤ 0.026. In the case of U2A G10U G19U U22G A31U G67C, the nonsense suppression is reported as ≤ 0.026. With C1U C5U G15C A54G G61C G69A the nonsense suppression was ≤ 0.026. In the case of U2A C5U U21A U71A, the nonsense suppression is reported as ≤ 0.026. In the case of U2C C11A U71G, the nonsense suppression is reported as ≤ 0.026. For U2C G7U A62U, the nonsense suppression was ≤ 0.026. For C1U U22C A54G C75A G84A, the nonsense suppression was ≤ 0.026. For U2A G19A A74G, the nonsense suppression was ≤ 0.026. With C1U G73C the nonsense suppression was ≤ 0.026. With U2A C34U A87U the nonsense suppression was ≤ 0.026. In the case of C1U U4C G61A, the nonsense suppression is reported as ≤ 0.026. With U2C C27A G65U the nonsense suppression was ≤ 0.026. With C1U G69C G73C the nonsense suppression was ≤ 0.026. With U2C C56A the nonsense suppression was ≤ 0.026. With U2C G7C G26U U70A the nonsense suppression was ≤ 0.026. In the case of C1U G6U, the nonsense suppression is reported as ≤ 0.026. For C1U G26A G69U C79U, the nonsense suppression was ≤ 0.026. For C1U U4C, the nonsense suppression was ≤ 0.026. In the case of C1U U76C C82U, the nonsense suppression is reported as ≤ 0.026. With C1U C81A the nonsense suppression was ≤ 0.026. In the case of C1U G15C G19A A87C, the nonsense suppression is reported as ≤ 0.026. For C1U C77A G84U, the nonsense suppression was ≤ 0.026. In the case of U2A G6C A23C U76C, the nonsense suppression is reported as ≤ 0.026. With U2A U21G C68G the nonsense suppression was ≤ 0.026. For C1U U4C U16G G61U, the nonsense suppression was ≤ 0.026. With U2A G85A the nonsense suppression was ≤ 0.026. In the case of C1U C29U C34A U55C A62G G85C, the nonsense suppression is reported as ≤ 0.026. In the case of C1U G67C G78U, the nonsense suppression is reported as ≤ 0.026. With C1U U21G the nonsense suppression was ≤ 0.026. For C1U U21A, the nonsense suppression was ≤ 0.026. With U2C C27A C82U the nonsense suppression was ≤ 0.026. For C1U G18U G32U C82A C83A, the nonsense suppression was ≤ 0.026. With U2A A14U U16G G25U G85C the nonsense suppression was ≤ 0.026. For U2C U16C G26A C82A A89G, the nonsense suppression was ≤ 0.026. With U2A C34A G78U G86U the nonsense suppression was ≤ 0.026. In the case of C1U G32U U55A A62C G67C, the nonsense suppression is reported as ≤ 0.026. In the case of C1U U20G G69U, the nonsense suppression is reported as ≤ 0.026. For C1U G65C U71G C75A, the nonsense suppression was ≤ 0.026. In the case of C1U C34A G73C, the nonsense suppression is reported as ≤ 0.026. In the case of U2A U57A A62G G67U, the nonsense suppression is reported as ≤ 0.026. In the case of C1U G26U C34G, the nonsense suppression is reported as ≤ 0.026. In the case of U2A U8C A9U A31G C64A C77A C80A G86C, the nonsense suppression is reported as ≤ 0.026. With U2C A54U C56U C83U the nonsense suppression was ≤ 0.026. For U2C C27A, the nonsense suppression was ≤ 0.026. With C1U G61A the nonsense suppression was ≤ 0.026. With C1U G61C the nonsense suppression was ≤ 0.026. For C1U C11U G66A U70C, the nonsense suppression was ≤ 0.026. In the case of U2C G28U G66A C80G G85A, the nonsense suppression is reported as ≤ 0.026. In the case of U2A U21G C79A C83G, the nonsense suppression is reported as ≤ 0.026. In the case of C1U C12G A24C, the nonsense suppression is reported as ≤ 0.026. In the case of U2A A23G, the nonsense suppression is reported as ≤ 0.026. In the case of U2A G66U, the nonsense suppression is reported as ≤ 0.026. In the case of U2C G6U C29U, the nonsense suppression is reported as ≤ 0.026. In the case of C1U C11G A33G C56U C83G, the nonsense suppression is reported as ≤ 0.026. For U2A G7C A13C, the nonsense suppression was ≤ 0.026. In the case of C1U G59C A60C, the nonsense suppression is reported as ≤ 0.026. With U2A G67C G84C the nonsense suppression was ≤ 0.026. With C1U U58A U76C the nonsense suppression was ≤ 0.026. For U2C A14G U16C G19C A33U, the nonsense suppression was ≤ 0.026. For C1U U35G G69A U76A, the nonsense suppression was ≤ 0.026. In the case of C1U U2C A87C, the nonsense suppression is reported as ≤ 0.026. With C1U U2G U20G C29A the nonsense suppression was ≤ 0.026. In the case of U2A G10A, the nonsense suppression is reported as ≤ 0.026. In the case of C1U G26U G73A, the nonsense suppression is reported as ≤ 0.026. With C1U G10U the nonsense suppression was ≤ 0.026. In the case of C1U U76G C81A, the nonsense suppression is reported as ≤ 0.026. With U2A G6C C83U the nonsense suppression was ≤ 0.026. In the case of C1U U4G G19C, the nonsense suppression is reported as ≤ 0.026. For U2A G15U G78C, the nonsense suppression was ≤ 0.026. With U2A U17A the nonsense suppression was ≤ 0.026. For C1U C27G G85U G88U, the nonsense suppression was ≤ 0.026. For U2C G15A C29U, the nonsense suppression was ≤ 0.026. In the case of U2A U76A, the nonsense suppression is reported as ≤ 0.026. With U2A C11U the nonsense suppression was ≤ 0.026. For U2A C11G, the nonsense suppression was ≤ 0.026. For U2C G6A A23C C81G, the nonsense suppression was ≤ 0.026. With C1U C12U A23U G65A C68U the nonsense suppression was ≤ 0.026. For C1U G26A A62C U70C G88U, the nonsense suppression was ≤ 0.026. With U2A C75U C77U the nonsense suppression was ≤ 0.026. For U2A C29G, the nonsense suppression was ≤ 0.026. With U2A C29U the nonsense suppression was 0.0437. With U2C C12A A23U A60U U76A the nonsense suppression was ≤ 0.026. For U2A C12U U20G G28C C80A, the nonsense suppression was ≤ 0.026. With C1U C34A U55C the nonsense suppression was ≤ 0.026. With C1U U55G U76A the nonsense suppression was ≤ 0.026. In the case of C1U U17C C81G G84C, the nonsense suppression is reported as ≤ 0.026. For U2A U4A C68U C77A, the nonsense suppression was ≤ 0.026. In the case of C1U C5U A13C G88A, the nonsense suppression is reported as ≤ 0.026. In the case of U2C G32A A54G, the nonsense suppression is reported as ≤ 0.026. In the case of U2C C3A U57G U71C, the nonsense suppression is reported as ≤ 0.026. In the case of U2A C12G A31G C34G U57C A87C, the nonsense suppression is reported as ≤ 0.026. In the case of C1U G61C C68U G84A A87G, the nonsense suppression is reported as ≤ 0.026. For U2A U20C A30G U35G, the nonsense suppression was ≤ 0.026. With U2A U4A A87C the nonsense suppression was ≤ 0.026. With U2C C11U G73U U76G G85A the nonsense suppression was ≤ 0.026. With U2A G26C A30U the nonsense suppression was ≤ 0.026. In the case of C1U U63A G67C, the nonsense suppression is reported as ≤ 0.026. In the case of U2C U8C A23G C56U G65C, the nonsense suppression is reported as ≤ 0.026. In the case of U2A C5U G18U U55C U58G U70C C81U, the nonsense suppression is reported as ≤ 0.026. For U2A C3A A24U, the nonsense suppression was ≤ 0.026. In the case of C1U G15C G26C, the nonsense suppression is reported as ≤ 0.026. For U2A C29A C56A A60U, the nonsense suppression was ≤ 0.026. With C1U U16A A31G U58A C77U the nonsense suppression was ≤ 0.026. In the case of U2C C5G, the nonsense suppression is reported as ≤ 0.026. In the case of U2C C5U, the nonsense suppression is reported as ≤ 0.026. For U2C U8A C29G U70C C82G, the nonsense suppression was ≤ 0.026. Work on U2C C68U A87G yielded a nonsense suppression of 1.13. In the case of U2A C56A A62G, the nonsense suppression is reported as ≤ 0.026. With C1U C29G U70C the nonsense suppression was ≤ 0.026. For U2C G84A A89G, the nonsense suppression was ≤ 0.026.
